# Measured values taken from paper PMC4336329 (PLoS ONE, 2015).
# Hit rate of the full screen: of about 310,000 compounds, about 14,000 (4.5%) showed an effect of 50% or more. Effects have a minus sign here. The list shows a part of the results.
# Biological target: human ether-à-go-go-related gene (hERG) potassium channel (human, UniProt Q12809)
# Experiment: primary screen, population patch clamp on CHO cells stably expressing hERG
# 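Also: peak tail current of the secondary pulse compared with the same well before compound.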
# human ether-à-go-go-related gene (hERG) potassium channel, sequence (Q12809 whole entry, looked up): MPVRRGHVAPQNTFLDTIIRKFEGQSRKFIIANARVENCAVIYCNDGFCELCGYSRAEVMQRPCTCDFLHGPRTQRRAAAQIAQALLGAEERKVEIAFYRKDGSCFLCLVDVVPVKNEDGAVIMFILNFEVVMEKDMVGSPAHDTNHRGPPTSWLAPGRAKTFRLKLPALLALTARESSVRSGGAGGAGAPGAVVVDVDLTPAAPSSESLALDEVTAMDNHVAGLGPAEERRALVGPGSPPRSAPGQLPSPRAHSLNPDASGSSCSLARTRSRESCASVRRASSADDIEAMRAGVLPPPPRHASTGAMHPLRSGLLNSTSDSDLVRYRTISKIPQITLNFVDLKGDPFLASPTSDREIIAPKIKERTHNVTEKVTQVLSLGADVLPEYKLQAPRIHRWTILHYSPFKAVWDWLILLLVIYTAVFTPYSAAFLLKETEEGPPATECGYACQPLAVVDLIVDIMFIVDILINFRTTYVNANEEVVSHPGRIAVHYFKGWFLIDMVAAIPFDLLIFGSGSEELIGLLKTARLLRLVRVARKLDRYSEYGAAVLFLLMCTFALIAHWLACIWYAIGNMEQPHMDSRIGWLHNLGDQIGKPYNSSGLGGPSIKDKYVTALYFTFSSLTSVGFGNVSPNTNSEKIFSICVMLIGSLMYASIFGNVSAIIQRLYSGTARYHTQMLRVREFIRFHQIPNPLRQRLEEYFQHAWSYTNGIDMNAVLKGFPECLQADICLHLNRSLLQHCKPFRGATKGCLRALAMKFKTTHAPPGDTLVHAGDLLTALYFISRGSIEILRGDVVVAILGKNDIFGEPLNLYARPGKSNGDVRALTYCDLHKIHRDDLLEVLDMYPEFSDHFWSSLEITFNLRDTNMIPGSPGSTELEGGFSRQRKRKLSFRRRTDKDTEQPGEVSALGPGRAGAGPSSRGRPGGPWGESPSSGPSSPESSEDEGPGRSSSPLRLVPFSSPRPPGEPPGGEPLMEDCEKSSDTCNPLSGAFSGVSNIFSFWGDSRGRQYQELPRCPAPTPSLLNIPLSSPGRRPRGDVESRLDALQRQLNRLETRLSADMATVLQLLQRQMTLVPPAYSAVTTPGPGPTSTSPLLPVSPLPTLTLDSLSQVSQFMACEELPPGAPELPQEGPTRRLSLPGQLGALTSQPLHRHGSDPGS
row,SMILES,"hERG current change (%, negative = inhibition) at 10uM [%]"
1,Cc1c(NC(=O)CN(c2ccccc2)S(=O)(=O)c2ccc(F)cc2)c(=O)n(-c2ccccc2)n1C,-46.6
2,CC1(C)CC(=O)C=C(c2cccc(CO)c2)C1,18.5
3,CC(C)OC(=O)c1cn(-c2ccccc2)nc1-c1ccc2c(c1)OCCO2,13.4
4,Cn1nc2c(c1C(=O)O)CCCC2,-6.21
5,COc1ccc(CN(C)C(=O)CCN(c2ccccc2)S(=O)(=O)c2ccc(C)cc2)c(OC)c1,-41.5
6,S=C(NCc1ccco1)Nc1ccc(Br)cc1Cl,0.089
7,CCN(CC)c1ccc(C(=O)N/N=C/c2ccc(OC)cc2OC)cc1,20
8,COc1cccc(C(=O)N(CN2CCCC2=O)c2ccccc2OC)c1,-8.24
9,CCOC(=O)c1c(/N=C/c2c(O)n(-c3cccc(C)c3)c(=O)[nH]c2=O)sc2c1CCCC2,13.2
10,O=c1[nH]c(CSc2nnc3ccccn23)nc2cc(C(F)(F)F)ccc12,-7.94
11,CC1CC(NC(=O)C2(C)CC2(Cl)Cl)CC(C)(C)C1 (centres unmarked),8.78
12,Cc1ccc(S(=O)(=O)NC(C)(C)CSc2nncn2C)cc1,-4.79
13,COc1ccc(S(=O)(=O)Nc2nncs2)cc1,18
14,COc1ccc(OC)c(-c2nc(C(=O)NCCCN3CCOCC3)cc3c2[nH]c2ccccc23)c1,-65.7
15,COc1cc2cc(C)c(SCC(=O)N3CCOCC3)nc2cc1OC,-1.12
16,CCN(CC)CCCNC(=O)C(C)Sc1nc(-c2ccccc2)cc(C(F)(F)F)n1 (centres unmarked),-48.2
17,O=C(/C=C/Nc1ccc(OC(F)(F)F)cc1)C(F)(F)F,-14.2
18,COc1ccc(N2C(=O)C(Cl)=C(Nc3ccc(OC)cc3OC)C2=O)cc1,18.5
19,Cc1nnc(N/N=C/c2ccccn2)[nH]c1=O,14.1
20,CCCCc1cc(=O)oc2cc(OCC(=O)NC(Cc3c[nH]c4ccc(O)cc34)C(=O)O)ccc12 (centres unmarked),3.86
21,CCOc1ccc2nc(NC(=O)C(CC)Sc3nc(C)cc(=O)[nH]3)sc2c1 (centres unmarked),12.4
22,c1ccc(CN2CCc3nc4ccccc4cc3C2)cc1,-4.62

row,SMILES,"hERG current change (%, negative = inhibition) at 10uM [%]"
1,COc1ccccc1CC1(C)NC(=O)N(CC(=O)N2CCc3ccccc3C2)C1=O (centres unmarked),-24.4
2,CC1=CC(C)(C)Nc2ccc(OC(=O)CN3C(=O)c4ccccc4C3=O)cc21,15
3,NC(=O)CSc1nnc(Cc2ccc3c(c2)OCO3)n1C1CCCCC1,-2.74
4,CCOc1ccc(NC(=O)C2CCCN(S(=O)(=O)c3c(C)n[nH]c3C)C2)cc1 (centres unmarked),-4.42
5,CCC(C)NC(=O)COCc1cc(-c2ccc3c(c2)OCO3)on1 (centres unmarked),4.21
6,COc1cccc(/C=C/C(=O)OCC(=O)Nc2ccc(Cl)c(S(=O)(=O)N(C)C)c2)c1,9.85
7,O=C(NCCCCc1ccccc1)c1ccccc1,15
8,Cc1oc(-c2ccc(Cl)cc2)nc1CS(=O)CC(=O)NCc1ccccc1 (centres unmarked),-9.63
9,CCCc1nc2ccc(NC(C)=O)cc2c(=O)n1Cc1cccc(Cl)c1,-1.09
10,CCC(NC(=O)NCCCn1ccnc1)(C(F)(F)F)C(F)(F)F,8.18
11,Cc1cc(-c2ccccc2)nc(N/N=C/c2cccnc2)n1,12.4
12,Cc1ccc(-c2nn(CCC(=O)Nc3cccnc3)c(=O)c3ccccc23)cc1,-48.8
13,Cc1cc2c(c(=O)n1Cc1cccnc1)C(Cc1ccccc1)C(C#N)=C(N)O2 (centres unmarked),-40.3
14,CCCC(=O)C1=C(O)C(C(=O)OC)C(C)(C)CC1=NCc1ccccc1 (centres unmarked),0.836
15,COC(=O)CCN(C)CCC(=O)OC.Cl,8.58
16,CS(=O)(=O)n1nc(NCc2cccs2)nc1NCc1cccs1,-0.436
17,CCC(=O)NNc1cccc(Cl)n1,-4.71
18,CCc1[nH]nc2c1C(Cc1ccccc1)C(C#N)=C(N)O2 (centres unmarked),-15.8
19,Cc1ccsc1/C=N/NC(=O)C1CC(=O)N(c2ccccc2)C1 (centres unmarked),-15.4
20,Cc1ccc(C(C)C)c(OCc2ccc(C(=O)N/N=C/c3cccc(O)c3O)cc2)c1,7.65
21,Cc1nc(-c2cccc(NC(=O)c3cccs3)c2)cs1,-23.3
22,CN1CCN(c2ccc(-c3cccc(NC(=O)COc4ccc(Cl)cc4Cl)c3)nn2)CC1,6.83
